The source gives no read counts; variants with many changes may rest on few reads.
B1: LINE1-full (parent)
chain: UACGUAGGUGGUUUUCCCCUGAUAGUGCUAAGGGGGCCUGGAAGUUUGGACUGGGCAGAGCUCAACACAGCGUGGCAAAGUGGCUGUGGCUAGACUGCCUCUCUGGAUUCCUCGUCACUCAGCAGGGCAUCUCUGAGAGAAAUGCC

Variants of: B1
Experiment: self-cleavage, relative activity (ratio to wild type); higher = more cleavage; in vitro, sequencing; the parent is a self-cleaving ribozyme
U29C U52C U100C showed a self-cleavage of 1.02.
With A30U A69G G89U the self-cleavage was 0.11.
A30G C61G U112A A117G showed a self-cleavage of 0.44.
A30U U47A U119A A121G showed a self-cleavage of 1.37.
U29C G72A A138G gave a self-cleavage of 2.07.
Variant A30G A65G A138G has a self-cleavage of 0.
In the case of A30U C95U A107U, the self-cleavage is reported as 0.25.
U29C U87C U130C U132C A136U showed a self-cleavage of 0.
For A30U C68U U132C, the self-cleavage was 0.56.
In the case of A30G U73A A142G, the self-cleavage is reported as 1.38.
Variant A30G A43G U112A has a self-cleavage of 0.43.
In the case of A30G G70A A138G U143C, the self-cleavage is reported as 0.15.
A30G U115C A136U A138G gave a self-cleavage of 0.
For A30G G35A U91C A141G, the self-cleavage was 0.67.
A30U U46A A67G showed a self-cleavage of 0.41.
With A30G U45G A59G A69U C76U A121G the self-cleavage was 0.21.
For A30U A65U A138C, the self-cleavage was 0.15.
A31C A50U A107U A117U showed a self-cleavage of 1.94.
A30G A67G U119A gave a self-cleavage of 0.81.
A30G A43G U132C gave a self-cleavage of 0.4.
A30U A67G A124G gave a self-cleavage of 0.32.
Work on U29C U85A A117U yielded a self-cleavage of 0.12.
With A30U C84A A107U the self-cleavage was 0.2.
A30U U52A A107G A138G C146A gave a self-cleavage of 1.34.
A30U U47C A67G showed a self-cleavage of 0.73.
Work on U29C G72U U112A yielded a self-cleavage of 1.18.
Variant A30U U62C U73C has a self-cleavage of 0.2.
In the case of A30G A67G U109C A141G, the self-cleavage is reported as 0.
Work on A30U U46C U104C yielded a self-cleavage of 1.47.
With A30G A43G U87A U115C the self-cleavage was 0.14.
With A30G C61A G70C U85C the self-cleavage was 0.12.
Work on A30U U52C A78U U115C yielded a self-cleavage of 2.19.
Work on A30G A42G A57G A124U A141U yielded a self-cleavage of 1.97.
A30U C56U A79G A140G gave a self-cleavage of 0.12.
A30U A117G G122A gave a self-cleavage of 1.08.
A30G A64G U73C showed a self-cleavage of 0.
A30G G36C A42G A57U showed a self-cleavage of 0.47.
In the case of A30G A57G C98U, the self-cleavage is reported as 0.35.
A30G A59G U100C U134C gave a self-cleavage of 0.
Work on A30G A64U A141G U143C yielded a self-cleavage of 1.05.
Work on A30G U62A U85A U119C yielded a self-cleavage of 0.37.
Variant U29C U85C U115C A138G has a self-cleavage of 0.
With U29C U45C A57G A124U A136G the self-cleavage was 1.53.
In the case of A30U A43G C51A U115C, the self-cleavage is reported as 0.9.
U29C U73C U100A U108C gave a self-cleavage of 0.
Variant A30G U87C C113G A142G has a self-cleavage of 0.45.
A30G U73A U100C showed a self-cleavage of 1.7.
In the case of A30G U39C A142G, the self-cleavage is reported as 1.2.
A30G A57U A121U C131U showed a self-cleavage of 0.2.
Work on A30G A69G U109C U143A yielded a self-cleavage of 0.
U29C G83A U96C U100A gave a self-cleavage of 0.13.
Variant A30G A57U A59U A69G A79U C116U A124G U134A has a self-cleavage of 0.
In the case of U29C U46C A50G U130C U134C, the self-cleavage is reported as 0.
Work on A30C A67U A77G yielded a self-cleavage of 0.48.
A30G U85C A121U gave a self-cleavage of 0.54.
In the case of U29C U132C U143C, the self-cleavage is reported as 1.3.
Variant U29C U47C U130A has a self-cleavage of 1.05.
Variant A30U C71G U81A G89A A121G A140G has a self-cleavage of 0.02.
For U29C U46C U102C, the self-cleavage was 0.72.
With A30U U46A A92G the self-cleavage was 0.08.
For A30G A42G U104C U132C, the self-cleavage was 2.83.
For A30G A57G U62C A64U G82A, the self-cleavage was 0.05.
With U29C G54A U62A the self-cleavage was 0.
Variant A30G U46A U112C U115C has a self-cleavage of 2.25.
With U29C U119C C131U A140G the self-cleavage was 2.63.
A30U A43G U134C gave a self-cleavage of 0.84.
Work on A30U A31U U47A yielded a self-cleavage of 0.62.
For A30C A65U A94G, the self-cleavage was 0.27.
Variant U29C U108C A117U has a self-cleavage of 1.44.
In the case of A30U U119A U134C, the self-cleavage is reported as 0.65.
For A30C G33A G70A U85C G86A, the self-cleavage was 0.03.
A30G U132C A138G showed a self-cleavage of 1.08.
Variant U29C G48A G49U U115A has a self-cleavage of 1.27.
In the case of U29C U46C U115C, the self-cleavage is reported as 0.
For A30U U47C U81A U108C U112A U115A, the self-cleavage was 2.53.
Work on U29C U62A U96C U132C yielded a self-cleavage of 0.
For A30G U73C U81A U85C U109A, the self-cleavage was 0.
Work on A30U A57G U102G yielded a self-cleavage of 2.63.
For A30G U39A G44A A50G U134C, the self-cleavage was 1.25.
In the case of A30G G49A U81A A107G, the self-cleavage is reported as 1.93.
A30G G105A U119A showed a self-cleavage of 2.76.
With A30U A64G A79G G114C the self-cleavage was 0.36.
Variant A30G A65G G72C has a self-cleavage of 0.18.

— the RNAGym collection of RNA variant scans (doi:10.7554/elife.90254)
